We go through 31 molecules from paper PMC9911399, “Two distinct binding modes provide the RNA-binding protein RbFox with extraordinary sequence specificity”.

T1: RBFOX1 RRM (Homo sapiens, UniProt Q9NWB1 109-208)
T1 sequence: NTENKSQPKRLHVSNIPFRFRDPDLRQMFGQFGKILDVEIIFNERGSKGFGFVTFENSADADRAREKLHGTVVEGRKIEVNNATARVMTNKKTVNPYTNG

B1: ACACAGA (DNA:RNA)
RNA: GGGAGACCGGAAUUCAGAUUGUCCACACAGAUUAAAUCCCGUCGUAGCCACCA
DNA 1: CAATCTGAATTCCGGTCTCCC
DNA 2: TGGTGGCTACGACGGGATT
B2: UUCGUUU (DNA:RNA)
RNA: GGGAGACCGGAAUUCAGAUUGUCCUUCGUUUUUAAAUCCCGUCGUAGCCACCA
DNA 1: CAATCTGAATTCCGGTCTCCC
DNA 2: TGGTGGCTACGACGGGATT
B3: UUGGUAG (DNA:RNA)
RNA: B2 RNA with C27G, U30A, U31G
DNA 1: CAATCTGAATTCCGGTCTCCC
DNA 2: TGGTGGCTACGACGGGATT
B4: UAGGGAA (DNA:RNA)
RNA: B2 RNA with U26A, C27G, U29G, U30A, U31A
DNA 1: CAATCTGAATTCCGGTCTCCC
DNA 2: TGGTGGCTACGACGGGATT
B5: CGUUCAA (DNA:RNA)
RNA: B1 RNA with A25C, C26G, A27U, C28U, A29C, G30A
DNA 1: CAATCTGAATTCCGGTCTCCC
DNA 2: TGGTGGCTACGACGGGATT
B6: GGUACUC (DNA:RNA)
RNA: B2 RNA with U25G, U26G, C27U, G28A, U29C, U31C
DNA 1: CAATCTGAATTCCGGTCTCCC
DNA 2: TGGTGGCTACGACGGGATT
B7: CUAGGCC (DNA:RNA)
RNA: B2 RNA with U25C, C27A, U29G, U30C, U31C
DNA 1: CAATCTGAATTCCGGTCTCCC
DNA 2: TGGTGGCTACGACGGGATT
B8: GAAAAGU (DNA:RNA)
RNA: B1 RNA with A25G, C26A, C28A, A31U
DNA 1: CAATCTGAATTCCGGTCTCCC
DNA 2: TGGTGGCTACGACGGGATT
B9: UGCCGCU (DNA:RNA)
RNA: B2 RNA with U26G, G28C, U29G, U30C
DNA 1: CAATCTGAATTCCGGTCTCCC
DNA 2: TGGTGGCTACGACGGGATT
B10: UACCUAU (DNA:RNA)
RNA: B2 RNA with U26A, G28C, U30A
DNA 1: CAATCTGAATTCCGGTCTCCC
DNA 2: TGGTGGCTACGACGGGATT
B11: GGAUGAG (DNA:RNA)
RNA: B1 RNA with A25G, C26G, C28U, A29G, G30A, A31G
DNA 1: CAATCTGAATTCCGGTCTCCC
DNA 2: TGGTGGCTACGACGGGATT
B12: GCUAAAG (DNA:RNA)
RNA: B1 RNA with A25G, A27U, C28A, G30A, A31G
DNA 1: CAATCTGAATTCCGGTCTCCC
DNA 2: TGGTGGCTACGACGGGATT
B13: CAUUUUU (DNA:RNA)
RNA: B2 RNA with U25C, U26A, C27U, G28U
DNA 1: CAATCTGAATTCCGGTCTCCC
DNA 2: TGGTGGCTACGACGGGATT
B14: GUUCUAA (DNA:RNA)
RNA: B1 RNA with A25G, C26U, A27U, A29U, G30A
DNA 1: CAATCTGAATTCCGGTCTCCC
DNA 2: TGGTGGCTACGACGGGATT
B15: UAUCUGC (DNA:RNA)
RNA: B1 RNA with A25U, C26A, A27U, A29U, A31C
DNA 1: CAATCTGAATTCCGGTCTCCC
DNA 2: TGGTGGCTACGACGGGATT
B16: CUAGCAU (DNA:RNA)
RNA: B2 RNA with U25C, C27A, U29C, U30A
DNA 1: CAATCTGAATTCCGGTCTCCC
DNA 2: TGGTGGCTACGACGGGATT
B17: ACGGCAU (DNA:RNA)
RNA: B1 RNA with A27G, C28G, A29C, G30A, A31U
DNA 1: CAATCTGAATTCCGGTCTCCC
DNA 2: TGGTGGCTACGACGGGATT
B18: CUAAGCG (DNA:RNA)
RNA: B1 RNA with A25C, C26U, C28A, A29G, G30C, A31G
DNA 1: CAATCTGAATTCCGGTCTCCC
DNA 2: TGGTGGCTACGACGGGATT
B19: GCCUAUU (DNA:RNA)
RNA: B2 RNA with U25G, U26C, G28U, U29A
DNA 1: CAATCTGAATTCCGGTCTCCC
DNA 2: TGGTGGCTACGACGGGATT
B20: CUUCCGA (DNA:RNA)
RNA: B1 RNA with A25C, C26U, A27U, A29C
DNA 1: CAATCTGAATTCCGGTCTCCC
DNA 2: TGGTGGCTACGACGGGATT
B21: AGGUCAG (DNA:RNA)
RNA: B1 RNA with C26G, A27G, C28U, A29C, G30A, A31G
DNA 1: CAATCTGAATTCCGGTCTCCC
DNA 2: TGGTGGCTACGACGGGATT
B22: CGUUGGA (DNA:RNA)
RNA: B1 RNA with A25C, C26G, A27U, C28U, A29G
DNA 1: CAATCTGAATTCCGGTCTCCC
DNA 2: TGGTGGCTACGACGGGATT
B23: AAAAACU (DNA:RNA)
RNA: B1 RNA with C26A, C28A, G30C, A31U
DNA 1: CAATCTGAATTCCGGTCTCCC
DNA 2: TGGTGGCTACGACGGGATT
B24: AACUCUA (DNA:RNA)
RNA: B1 RNA with C26A, A27C, C28U, A29C, G30U
DNA 1: CAATCTGAATTCCGGTCTCCC
DNA 2: TGGTGGCTACGACGGGATT
B25: UGGAGUU (DNA:RNA)
RNA: B2 RNA with U26G, C27G, G28A, U29G
DNA 1: CAATCTGAATTCCGGTCTCCC
DNA 2: TGGTGGCTACGACGGGATT
B26: GGAUUUG (DNA:RNA)
RNA: B2 RNA with U25G, U26G, C27A, G28U, U31G
DNA 1: CAATCTGAATTCCGGTCTCCC
DNA 2: TGGTGGCTACGACGGGATT
B27: AUAUAAA (DNA:RNA)
RNA: B1 RNA with C26U, C28U, G30A
DNA 1: CAATCTGAATTCCGGTCTCCC
DNA 2: TGGTGGCTACGACGGGATT
B28: CUUGCGA (DNA:RNA)
RNA: B1 RNA with A25C, C26U, A27U, C28G, A29C
DNA 1: CAATCTGAATTCCGGTCTCCC
DNA 2: TGGTGGCTACGACGGGATT
B29: CAAUACA (DNA:RNA)
RNA: B1 RNA with A25C, C26A, C28U, G30C
DNA 1: CAATCTGAATTCCGGTCTCCC
DNA 2: TGGTGGCTACGACGGGATT
B30: UUUGCCG (DNA:RNA)
RNA: B2 RNA with C27U, U29C, U30C, U31G
DNA 1: CAATCTGAATTCCGGTCTCCC
DNA 2: TGGTGGCTACGACGGGATT
B31: UUUAUCG (DNA:RNA)
RNA: B2 RNA with C27U, G28A, U30C, U31G
DNA 1: CAATCTGAATTCCGGTCTCCC
DNA 2: TGGTGGCTACGACGGGATT

Positions count from the first letter of the chain named. Some of the results follow.

This experiment concerns the target T1, RBFOX1 RRM. Kind of experiment: EMSA; HiTS-Eq, 1 nM pool, 10 min; buffer printed only for the single-RNA assays: 10 mM Tris pH 7.5, 150 mM NaCl, 3.4 mM EDTA, 0.001% NP-40, 30 C. As to conditions: tags: His6 N-terminal (pET28a); label: 5' 32P. Summed up:
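Relative association constants, normalised to the cognate motif, were derived by comparing read counts of each RNA species with those of the control reaction. The RNA sequenced was the free fraction, separated by 8% native PAGE after a 10 min equilibration in 50 µL of 1 nM 5′-radiolabelled RNA (7 randomized nucleotides) with increasing concentrations of purified wild-type or mutant RbFox RRM.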
On the technique in general: In EMSA bound probe runs differently from free probe, usually more slowly.
B1: the binding signal is 0.0036 KA relative to UGCAUGU.
On to B2, for which the binding signal was 0.013 KA relative to UGCAUGU.
Under B3 stands 0.0237 KA relative to UGCAUGU; under B4, 0.00765 KA relative to UGCAUGU; under B5, 0.00656 KA relative to UGCAUGU.
Under B6 stands 0.032 KA relative to UGCAUGU.
Then B7, with 0.00877 KA relative to UGCAUGU; and B8, with 0.00662 KA relative to UGCAUGU.
For the molecule B9, the binding signal was 0.0179 KA relative to UGCAUGU.
For B10, the binding signal was 0.00482 KA relative to UGCAUGU.
Then B11, with 0.0205 KA relative to UGCAUGU; and B12, with 0.0137 KA relative to UGCAUGU; and B13, with 0.00699 KA relative to UGCAUGU.
Then B14, with 0.005 KA relative to UGCAUGU; and B15, with 0.0226 KA relative to UGCAUGU; and B16, with 0.00771 KA relative to UGCAUGU.
With B17, the binding signal was 0.0117 KA relative to UGCAUGU.
Under B18 stands 0.00989 KA relative to UGCAUGU; under B19, 0.0114 KA relative to UGCAUGU; under B20, 0.00692 KA relative to UGCAUGU.
Then B21, with 0.0133 KA relative to UGCAUGU.
Then B22, with 0.00714 KA relative to UGCAUGU.
Regarding B23, the binding signal is 0.000453 KA relative to UGCAUGU.
B24: the binding signal was 0.00136 KA relative to UGCAUGU.
Then B25, with 0.0241 KA relative to UGCAUGU; and B26, with 0.034 KA relative to UGCAUGU.
B27: the binding signal is 0.000659 KA relative to UGCAUGU.
Then B28, with 0.015 KA relative to UGCAUGU; and B29, with 0.000667 KA relative to UGCAUGU.
Under B30 stands 0.016 KA relative to UGCAUGU; under B31, 0.0113 KA relative to UGCAUGU.
